Whole data set: some 110,000 compounds, median “z-score” near -0.1, cut for the highest 2% near 2. Some of the results follow. Calls of active or inactive are those of the source.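 How the source made its calls: active means z-score in the third read window above 3 or below -3; inactive means the rest.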
What follows are molecules tested against Metabotropic glutamate receptor 8 (Rattus norvegicus) (UniProt P70579) (assay: rat mGluR8 modulators via GIRK flux, primary screen, cell-based, thallium flux, HTS (AID 488969)). Details: HEK293 rat mGluR8, GIRK (G protein-gated inwardly rectifying potassium channel) thallium flux, FluoZin2; at 10 µM; stronger effect = higher value; submaximal glutamate (EC20) added with thallium.
Chain of UniProt P70579 (P70579 whole entry, looked up): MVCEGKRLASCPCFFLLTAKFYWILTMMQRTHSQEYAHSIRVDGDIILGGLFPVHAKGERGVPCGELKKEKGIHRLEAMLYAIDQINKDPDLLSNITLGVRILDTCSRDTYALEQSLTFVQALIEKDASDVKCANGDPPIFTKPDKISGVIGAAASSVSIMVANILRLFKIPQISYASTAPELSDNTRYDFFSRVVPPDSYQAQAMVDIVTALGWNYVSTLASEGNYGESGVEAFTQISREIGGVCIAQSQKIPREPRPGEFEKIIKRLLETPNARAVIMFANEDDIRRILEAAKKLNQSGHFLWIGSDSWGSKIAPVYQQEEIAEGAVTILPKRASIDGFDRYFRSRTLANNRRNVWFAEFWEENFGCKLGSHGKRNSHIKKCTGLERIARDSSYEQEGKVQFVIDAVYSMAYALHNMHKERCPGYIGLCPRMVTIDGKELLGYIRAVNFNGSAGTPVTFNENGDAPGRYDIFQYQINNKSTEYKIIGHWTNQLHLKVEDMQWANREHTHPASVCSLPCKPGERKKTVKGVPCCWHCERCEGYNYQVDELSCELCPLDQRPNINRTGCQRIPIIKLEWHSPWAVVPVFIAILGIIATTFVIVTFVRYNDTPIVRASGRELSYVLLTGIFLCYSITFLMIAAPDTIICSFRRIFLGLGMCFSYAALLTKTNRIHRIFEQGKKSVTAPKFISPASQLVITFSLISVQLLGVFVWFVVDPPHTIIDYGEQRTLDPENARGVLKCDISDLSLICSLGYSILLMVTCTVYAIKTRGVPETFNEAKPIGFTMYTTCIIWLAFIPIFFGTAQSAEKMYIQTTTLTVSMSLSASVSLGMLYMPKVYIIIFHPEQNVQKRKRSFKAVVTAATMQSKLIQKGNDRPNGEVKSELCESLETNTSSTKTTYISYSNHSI
With `CCCOC(=O)/C=C/c1c(C)[nH]c(=O)[nH]c1=O` the z-score was -1.15.
Molecule `O=C(Cn1nc(CNc2ccc(Cl)cc2)[n+]2c1CCCCC2)c1ccc(Br)cc1` has a z-score of 0.0544.
Work on `COc1ccccc1N1CCN(CCCC(=O)c2ccc(F)cc2)CC1` yielded a z-score of -0.123.
Work on `O=C(N/N=C/C=C/c1ccccc1)C1CC1(c1ccccc1)c1ccccc1` (configuration not stated) yielded a z-score of -0.153.
In the case of `Cc1cc(C)n2c(Nc3ccc4c(c3)OCCO4)c(-c3ccc(C)o3)nc2n1`, the z-score is reported as -1.17.
In the case of `CCCN(CCC)CCNS(=O)(=O)c1ccc2c(c1)oc(=O)n2C`, the z-score is reported as -0.41.
`COC(=O)Cn1c(C)nc2c(sc3nc(C)cc(C)c32)c1=O` showed a z-score of -0.232.
Work on `CCN(CC)CCN1C(=O)C(O)=C(C(C)=O)C1c1ccc(OC)c(OC)c1` (configuration not stated) yielded a z-score of -0.175.
For `CCOc1ccc(N2C(=O)CC(Sc3nc(-c4cccs4)cc(C(F)(F)F)c3C#N)C2=O)cc1` (configuration not stated), the z-score was -0.248.
`C(=N\Nc1ncnc2sc3c(c12)CCC3)/c1ccncc1` was tested, and the z-score was -0.0869.
With `CC(C)(C)c1nnc2sc(SCC(=O)c3ccc(Cl)cc3)nn2c1=O` the z-score was -0.209.
`O=C(CSc1nnc(-c2ccco2)o1)c1ccc(F)c(F)c1` showed a z-score of 0.152.
`CCn1c(SCC(=O)Nc2nc(C)c(C)s2)nc2cccnc21` gave a z-score of 0.0817.
`O=C(NCc1nnc(SCc2ccc(F)cc2)n1-c1ccccc1)C12CC3CC(CC(C3)C1)C2` was tested, and the z-score was -0.701.
For `COc1ccccc1NC(=S)Nc1ccccn1`, the z-score was 0.164.
Work on `COc1ccc(Nc2ccc(C(=O)O)cc2[N+](=O)[O-])cc1` yielded a z-score of 1.23.
`O=C(Nc1ccc2c(c1)C(=O)N(CC1CCCO1)C2=O)c1cccc(Br)c1` (configuration not stated) was tested, and the z-score was -0.369.
Work on `COc1ccc(Oc2nccc(OC)c2C#N)cc1` yielded a z-score of 0.0921.
In the case of `Cc1ccc(Cn2nnnc2CN2CCC(c3nc4ccc(Cl)cc4[nH]3)CC2)cc1`, the z-score is reported as -1.45.
Molecule `Cc1ccc(S(=O)(=O)N2CCN(C(=O)c3cccc(F)c3)CC2)cc1` has a z-score of -0.012.
With `Cc1ccc(-c2nc3ncccn3c2NC2CCCC2)o1` the z-score was -0.343.
With `CCOc1ccc(C(=O)NCC2CCCO2)cc1` (configuration not stated) the z-score was 0.58.
In the case of `O=S(=O)(NCC1CCCO1)c1ccc(S(=O)(=O)N(Cc2ccc(F)cc2)C2CCCCC2)cc1` (configuration not stated), the z-score is reported as -0.0636.
In the case of `Cc1ccc(C)c(N2CCN(C(=O)c3ccc4nc(-c5ccco5)c(-c5ccco5)nc4c3)CC2)c1`, the z-score is reported as -0.183.
`Oc1ccc(Cl)cc1C(C#Cc1ccccc1)N1CCOCC1` (configuration not stated) was tested, and the z-score was -0.0129.
`O=C(Cc1ccccc1)N/N=C/c1cccn1-c1ccc([N+](=O)[O-])cc1` was tested, and the z-score was active: 3.83.
For `Cc1cccc(OCCCC(=O)Nc2ccc(N3CCCCC3)cc2)c1`, the z-score was 0.00859.
`O=c1[nH]c(/C(Cl)=C/c2cc(Cl)ccc2O)nc2cc(Cl)ccc12` showed a z-score of 0.496.
`COC(=O)c1ccc(NC(=O)c2cn(-c3cccc(C)n3)cn2)cc1` gave a z-score of -0.196.
`Nc1ccc(Sc2cnn(-c3ccccc3)c(=O)c2Cl)cc1` was tested, and the z-score was -2.01.
With `COC(=O)c1cn(CCOc2ccccc2)c2ccccc12` the z-score was -0.11.
`O=C(N/N=C/c1ccc(OCc2ccccc2)cc1)c1cc[n+](Cc2ccccc2)cc1` showed a z-score of 1.44.
`CCOC(=O)c1sc(C)c2c(=O)n(CC)nnc12` gave a z-score of 0.154.
`CCN(CC)C(=O)c1c(C)nc2ccccn12` was tested, and the z-score was -0.394.
For `Cc1cc(C)n(CC(=O)n2c(C)c(C)c3ccccc32)n1`, the z-score was -0.195.
Work on `COC(=O)Cc1cc(=O)[nH]c(Nc2nc3ccccc3o2)n1` yielded a z-score of -0.0319.
`O=C(CCN1C(=O)/C(=C\c2ccccc2)SC1=S)NNC(=O)c1cccnc1` gave a z-score of -0.57.
Work on `N/C(Cc1ccc([N+](=O)[O-])cc1)=N\OC(=O)c1ccc2ccccc2c1` yielded a z-score of 0.358.
Molecule `CC(=O)CSc1nnc(CSc2ncccn2)n1C1CCCCC1` has a z-score of 0.152.
Molecule `Cc1ccc(NC(=O)CN2C(=O)C3C4C=CC(C4)C3C2=O)cc1S(=O)(=O)N(C)C` (configuration not stated) has a z-score of -0.278.
`CC(C)(C)c1ccc(CN(Cc2ccccc2)C(c2ccccn2)c2nnnn2C(C)(C)C)cc1` (configuration not stated) gave a z-score of 0.203.
Work on `O=C1C2C3C=CC(C3)C2C(=O)N1/N=C/c1cc(Br)cc([N+](=O)[O-])c1O` (configuration not stated) yielded a z-score of -0.236.
`Cc1cc(Br)ccc1OCCCCNC(C)(C)C` showed a z-score of 1.25.
Work on `O=[N+]([O-])c1ccc(Oc2cccc(Br)c2)c2ccncc12` yielded a z-score of 0.302.
Work on `O=C(CCCc1c[nH]c2ccccc12)N1CCN(c2ccc(N3CCOCC3)nn2)CC1` yielded a z-score of -0.501.
`CC(=O)c1cc2c(cc1NS(=O)(=O)c1ccc3c(c1)OCCO3)OCO2` showed a z-score of -1.28.
Work on `CCOC(=O)c1ccc(NC(=O)COc2ccc(S(=O)(=O)NC(C)CC)cc2)cc1` (configuration not stated) yielded a z-score of -0.303.
For `Cc1c(CCO)c(=O)n(-c2ccccc2)n1S(=O)(=O)c1ccc(F)cc1`, the z-score was 0.325.
`Cc1nn(-c2ccccc2)c(C)c1C1C(C#N)=C(N)Oc2n[nH]c(C)c21` (configuration not stated) was tested, and the z-score was -0.293.
Molecule `C=CCOC(=O)C1=C(C)NC(SCC(=O)OCC)=C(C#N)C1c1ccc(C)cc1` (configuration not stated) has a z-score of -0.147.
With `O=C(O)c1c(NC(=O)c2cccc3ccccc23)sc2c1CCC2` the z-score was -1.42.
For `COc1ccc(Nc2nc(N3CCCCC3)c3ccccc3n2)cc1`, the z-score was 1.03.
Molecule `CC1=CC2=NC(=O)/C(=C\c3cc(C)n(-c4ccccc4)c3C)C(=N)N2O1` has a z-score of 0.321.
For `O=C(O)CCc1nnc2n(Cc3ccc(F)cc3)c(=O)c3ccccc3n12`, the z-score was -0.587.
`S=C(Nc1ccc2nsnc2c1)N1CCCCC1` gave a z-score of -0.0604.
Molecule `Oc1ccc(C(=S)N2CCCCCC2)cc1` has a z-score of -0.122.
`O=C(COC(=O)c1c2c(nc3ccccc13)/C(=C/c1ccco1)CC2)NC1CCCC1` gave a z-score of 0.0442.
For `Cc1ccc(CSc2nnc(-c3ccc(S(=O)(=O)N4CCCC4)cc3)o2)cc1`, the z-score was 1.62.
For `COc1cc(C(=O)N2CCC(c3nc(-c4cccnc4)no3)CC2)cc(OC)c1OC`, the z-score was -0.0889.
In the case of `O=C(/C=C/c1ccccc1)C1C(=O)c2ccccc2C1=O`, the z-score is reported as active: 4.21.
`O=C(O)COc1ccc(Br)cc1/C=C1/SC(=O)N(CC(=O)N2CCCC2)C1=O` gave a z-score of -0.0243.
`Cc1ccc2c(=O)c(C(=O)NCc3cccs3)c[nH]c2c1` gave a z-score of 0.313.
Work on `O=C(NCc1cccnc1)C1c2ccccc2C(=O)N1C1CCCCCC1` (configuration not stated) yielded a z-score of -0.161.
Work on `Cc1nn(-c2ccccc2Cl)c(Cl)c1/C=N/Nc1nc2ccccc2s1` yielded a z-score of 0.161.
With `Cc1conc1NC(c1cccs1)c1ccc2cccnc2c1O` (configuration not stated) the z-score was active: 3.41.
For `NS(=O)(=O)c1ccc(Nc2nc(-c3ccccc3)cs2)cc1`, the z-score was -0.159.
Molecule `Cc1ccc2nc(-c3ccccn3)cc(C(=O)N3CCN(c4ncccn4)CC3)c2c1` has a z-score of -0.843.
Molecule `CCOc1cccc(-c2nnc3sc(COc4ccc(OC)cc4)nn23)c1` has a z-score of -0.272.
For `Cc1cccc(C(=O)Nc2nnc(-c3ccco3)o2)c1`, the z-score was 0.11.
`CCc1ccccc1N1CC23C=CC(O2)C(C(=O)OC)C3C1=O` (configuration not stated) gave a z-score of 0.413.
Work on `Cc1ccc2oc(=O)c3cnn(CC(=O)N(CCC(C)C)Cc4ccco4)c3c2c1` yielded a z-score of -2.01.
`CC(C)(C)c1ccc(C(=O)N2CCCCCC2=O)cc1` gave a z-score of -0.238.
Work on `CCOc1ccccc1N1Cc2cc(C)c(C)cc2C1` yielded a z-score of 0.67.
Work on `COc1ccc(OC)c(NC(=O)Nc2cccc(Cn3cccn3)c2)c1` yielded a z-score of -0.416.
In the case of `CN1C(=O)C(CC(=O)Nc2ccc3c(c2)Cc2ccccc2-3)N(C)C1=O` (configuration not stated), the z-score is reported as 0.675.
`Cc1cc(C)c(C)c(S(=O)(=O)ON2C(=O)c3ccccc3C2=O)c1C` showed a z-score of -0.121.
In the case of `Cc1cc(Cl)ccc1Oc1cccc(C(=O)/C(C#N)=C/N(C)C)c1`, the z-score is reported as -0.334.
`COc1ccc(C2C=C(c3ccccc3)Nc3ncnn32)cc1` (configuration not stated) showed a z-score of -2.33.
Work on `COc1cc(/C=C/C(=O)Nc2ccc(N3CCCCC3)c(S(=O)(=O)Nc3ccccc3Cl)c2)cc(OC)c1OC` yielded a z-score of -0.129.
Molecule `O=C(COC(=O)COc1ccccc1)NC1CCCc2ccccc21` (configuration not stated) has a z-score of -0.426.
In the case of `O=C(Cn1c(=O)oc2ccccc21)N1CCN(c2ccccc2)CC1`, the z-score is reported as 0.442.
For `O=C(Nc1cccc(C(=O)N2CCCC2)c1)c1ccccc1`, the z-score was -0.224.
With `COc1ccc(-c2cc(N)n(S(=O)(=O)c3ccc(C)cc3)n2)c(OC)c1` the z-score was -0.184.
Work on `COc1ccc(NC(=O)Nc2c(C)n(-c3ccccc3)c(=O)n2C)cc1OC` yielded a z-score of 0.771.
`COc1cc(OC)cc(-c2nc3ccccc3c(=O)n2OC(=O)c2ccc(C)c(C)c2)c1` showed a z-score of -0.711.
Molecule `CC(=O)Oc1ccc2ccccc2c1C(NC(=O)Cc1ccccc1)c1ccc(Cl)cc1` (configuration not stated) has a z-score of -0.109.
Molecule `CCC(C)(C)n1nnnc1C(c1ccc(C)cc1)N1CCSCC1` (configuration not stated) has a z-score of -0.406.
For `CC1=NNC(=O)C1CCC(=O)N/N=C(/C)c1ccc([N+](=O)[O-])cc1` (configuration not stated), the z-score was -0.197.
With `O=C(NC(N1CCCCCC1)C(Cl)(Cl)Cl)c1ccccc1Cl` (configuration not stated) the z-score was -0.147.
In the case of `COC(=O)c1ccc(NC(C)C(=O)OC)c([N+](=O)[O-])c1` (configuration not stated), the z-score is reported as 0.768.
`Cc1ccc(-n2nc3c(c2NC(=O)c2ccccc2Br)CS(=O)C3)cc1` (configuration not stated) was tested, and the z-score was -0.104.
`Cc1ccc(-c2nc3n(n2)Cc2ccccc2-3)cc1` gave a z-score of -0.495.
Work on `CCc1cccc(CC)c1NC(=O)COC(=O)C1(c2ccc(Cl)cc2)CCCC1` yielded a z-score of -0.174.
`CCc1nnc(NC(=O)c2ccc(Cl)c(S(=O)(=O)N3CCc4ccccc43)c2)s1` was tested, and the z-score was -0.758.
In the case of `COC(=O)C1C(=O)c2c([nH]c(C(=O)OC3CCCC3)c2C)CC1C` (configuration not stated), the z-score is reported as -1.66.
Work on `O=C(Cc1c[nH]c2ccccc12)OCC(=O)c1ccccc1` yielded a z-score of -0.21.
`CCOc1ccc(S(=O)(=O)n2nnc3ccccc32)cc1C(C)C` gave a z-score of 0.0867.
With `Cc1cc(-c2csc(N)n2)c(C)n1-c1ccc(Cl)c(Cl)c1` the z-score was 0.23.
`CC(c1ccco1)N(C(=O)c1ccccc1NS(=O)(=O)c1ccc(Cl)cc1)c1ccccn1` (configuration not stated) gave a z-score of -0.362.
For `CCCSc1nc2c(=O)[nH][nH]c(=O)c2n1Cc1ccccc1`, the z-score was -2.43.
`CCc1cc2c(NC(C(=O)O)C(C)C)ncnc2s1` (configuration not stated) gave a z-score of -2.02.
For `CCS(=O)(=O)Nc1ccc(Cc2ccc(NS(=O)(=O)CC)cc2)cc1`, the z-score was 0.315.
`Cc1ccc(C(=O)OCC(=O)Nc2ccccc2N2CCOCC2)cc1` showed a z-score of -1.57.
With `N#C/C(=C(\O)CCl)c1nnc2n1CCCCC2` the z-score was -0.399.
With `Cc1c(/C(O)=C2\C(=O)C(=O)N(CCN(C)C)C2c2cccs2)cnn1-c1ccccc1` (configuration not stated) the z-score was 0.388.
`Cn1c(=O)c2c(nc(OCc3ccc4c(c3)OCO4)n2Cc2ccccc2Cl)n(C)c1=O` showed a z-score of -0.0202.
For `Cc1ccccc1C(=O)OCCCN=C1NS(=O)(=O)c2ccccc21`, the z-score was -0.257.

Reference: PubChem BioAssay AID488969 (Vanderbilt High Throughput Screening Facility, 2010)
